The antibiotic and cytotoxicity screens of Wong et al. (2023)
Some of the results follow.

Columns and labels:
HSkMC = human skeletal muscle cells; assay: cytotoxicity call (relative viability < 0.9); conditions: 10 µM
HepG2 = assay: cytotoxicity call (relative viability < 0.9); conditions: 10 µM
S. aureus RN4220 = assay: growth inhibition call (relative growth <= 0.2); conditions: 50 µM

For `CNCc1nc(C(C)C)no1`, the cytotoxicity call (HSkMC) was “inactive”, the cytotoxicity call (HepG2) was “inactive” and the growth inhibition call (S. aureus RN4220) was “inactive”.

For `COc1ccc(CN(C)C[C@@H]2Oc3ccc(NC(=O)Nc4cccc5ccccc45)cc3CC(=O)N([C@H](C)CO)C[C@@H]2C)cc1`, the cytotoxicity call (HSkMC) was “inactive”, the cytotoxicity call (HepG2) was “inactive” and the growth inhibition call (S. aureus RN4220) was “inactive”.

For `COCCOC(=O)N1C(=O)[C@@]2(c3ccccc31)[C@H](c1ccc(OCCO)cc1)N1[C@H](c3ccccc3)[C@H](c3ccccc3)OC(=O)[C@H]1[C@@H]2C(=O)N1CCc2cc(OC)c(OC)cc2C1`, the cytotoxicity call (HSkMC) was “inactive”, the cytotoxicity call (HepG2) was “inactive” and the growth inhibition call (S. aureus RN4220) was “inactive”.

For `CCCNC(=O)N1C[C@@H](O)COC[C@H]2O[C@H](CC(=O)NCCCN3CCOCC3)CC[C@@H]21`, the cytotoxicity call (HSkMC) was “inactive”, the cytotoxicity call (HepG2) was “inactive” and the growth inhibition call (S. aureus RN4220) was “inactive”.

`C[C@H](CO)N1C[C@H](C)[C@@H](CN(C)S(=O)(=O)c2cn(C)cn2)Oc2c(NS(=O)(=O)c3ccc(F)cc3)cccc2C1=O` was tested, and the cytotoxicity call (HSkMC) was “inactive”, the cytotoxicity call (HepG2) was “inactive” and the growth inhibition call (S. aureus RN4220) was “inactive”.

For `COc1ccc(S(=O)(=O)Nc2ccc3c(c2)C(=O)N([C@H](C)CO)C[C@@H](C)[C@H](CN(C)Cc2ccc(C(F)(F)F)cc2)OCCCC[C@@H](C)O3)cc1`, the cytotoxicity call (HSkMC) was “inactive”, the cytotoxicity call (HepG2) was “active” and the growth inhibition call (S. aureus RN4220) was “inactive”.

`C[C@H]1CN([C@@H](C)CO)C(=O)CCCn2cc(nn2)CO[C@H]1CN(C)C(=O)Nc1cccc2ccccc12` was tested, and the cytotoxicity call (HSkMC) was “inactive”, the cytotoxicity call (HepG2) was “inactive” and the growth inhibition call (S. aureus RN4220) was “inactive”.

For `C[C@H](CO)N1C[C@H](C)[C@@H](CN(C)Cc2ccc(Oc3ccccc3)cc2)Oc2ccc(NC(=O)Nc3ccc(C(F)(F)F)cc3)cc2CC1=O`, the cytotoxicity call (HSkMC) was “active”, the cytotoxicity call (HepG2) was “active” and the growth inhibition call (S. aureus RN4220) was “inactive”.

For `C=CC[C@H](CC(=O)N(CCO)Cc1ccccc1)C(=O)N[C@@H](COC(=O)[C@@H](CC=C)CC(=O)OC(C)(C)C)Cc1c[nH]c2ccccc12`, the cytotoxicity call (HSkMC) was “inactive”, the cytotoxicity call (HepG2) was “inactive” and the growth inhibition call (S. aureus RN4220) was “inactive”.

For `COc1ccc(NC(=O)Nc2ccc3c(c2)CC(=O)N([C@@H](C)CO)C[C@@H](C)[C@@H](CN(C)S(=O)(=O)c2c(C)noc2C)O3)cc1`, the cytotoxicity call (HSkMC) was “inactive”, the cytotoxicity call (HepG2) was “inactive” and the growth inhibition call (S. aureus RN4220) was “inactive”.

For `CC(C)NC(=O)Nc1ccc2c(c1)C(=O)N([C@H](C)CO)C[C@@H](C)[C@H](CN(C)S(=O)(=O)c1cn(C)cn1)O2`, the cytotoxicity call (HSkMC) was “inactive”, the cytotoxicity call (HepG2) was “inactive” and the growth inhibition call (S. aureus RN4220) was “inactive”.

With `C[C@@H]1CN([C@H](C)CO)C(=O)c2cc(NS(=O)(=O)c3cccs3)ccc2O[C@H]1CN(C)CC1CC1` the cytotoxicity call (HSkMC) was “inactive”, the cytotoxicity call (HepG2) was “inactive” and the growth inhibition call (S. aureus RN4220) was “inactive”.

For `CCCC(=O)Nc1ccc2c(c1)C(=O)N(C)C[C@@H](OC)[C@H](C)CN(C(=O)CN1CCOCC1)[C@H](C)CO2`, the cytotoxicity call (HSkMC) was “inactive”, the cytotoxicity call (HepG2) was “inactive” and the growth inhibition call (S. aureus RN4220) was “inactive”.

`C[C@@H]1CN([C@H](C)CO)C(=O)c2cc(NC(=O)c3ccccc3)ccc2O[C@@H](C)CCCCO[C@H]1CN(C)Cc1ccc(C(=O)O)cc1` was tested, and the cytotoxicity call (HSkMC) was “inactive”, the cytotoxicity call (HepG2) was “inactive” and the growth inhibition call (S. aureus RN4220) was “inactive”.

`O=C(C[C@@H]1C[C@@H]2c3cc(NC(=O)Cc4ccncc4)ccc3O[C@@H]2[C@H](CO)O1)NCCN1CCCCC1` was tested, and the cytotoxicity call (HSkMC) was “inactive”, the cytotoxicity call (HepG2) was “inactive” and the growth inhibition call (S. aureus RN4220) was “inactive”.

For `C[C@]1(C(=O)NCCN2CCOCC2)c2ccccc2C(=O)N(Cc2cc(C(F)(F)F)cc(C(F)(F)F)c2)[C@H]1c1ccc(CO)cc1`, the cytotoxicity call (HSkMC) was “inactive”, the cytotoxicity call (HepG2) was “inactive” and the growth inhibition call (S. aureus RN4220) was “inactive”.

In the case of `C[C@H](CO)N1C[C@H](C)[C@H](CN(C)CC2CCCCC2)Oc2ccc(NC(=O)Nc3ccc(C(F)(F)F)cc3)cc2CC1=O`, the cytotoxicity call (HSkMC) is reported as “active”, the cytotoxicity call (HepG2) is reported as “active” and the growth inhibition call (S. aureus RN4220) is reported as “inactive”.

With `C[C@@H]1CN([C@H](C)CO)C(=O)c2cccc(NS(=O)(=O)c3ccccc3)c2O[C@@H]1CN(C)Cc1ccc(Cl)c(Cl)c1` the cytotoxicity call (HSkMC) was “inactive”, the cytotoxicity call (HepG2) was “inactive” and the growth inhibition call (S. aureus RN4220) was “inactive”.

With `C[C@@H]1NC(=O)[C@@H]2CCCN2C(=O)[C@H](CC(N)=O)NC(=O)[C@@H]2CSSC[C@H](N)C(=O)N[C@H]3CSSC[C@H](NC1=O)C(=O)N[C@@H]([C@@H](C)O)C(=O)NCC(=O)N[C@H](C(=O)N[C@@H](Cc1ccc(O)cc1)C(=O)O)CSSC[C@H](NC(=O)[C@H](Cc1ccc(O)cc1)NC(=O)[C@H](CCC(=O)O)NC3=O)C(=O)N2` the cytotoxicity call (HSkMC) was “inactive”, the cytotoxicity call (HepG2) was “inactive” and the growth inhibition call (S. aureus RN4220) was “inactive”.

`C[C@@H]1CN([C@@H](C)CO)C(=O)CCCn2nncc2CO[C@H]1CN(C)C(=O)Nc1cccc(C(F)(F)F)c1` was tested, and the cytotoxicity call (HSkMC) was “inactive”, the cytotoxicity call (HepG2) was “inactive” and the growth inhibition call (S. aureus RN4220) was “inactive”.

For `Cc1ccc(S(=O)(=O)Nc2ccc3c(c2)C(=O)N([C@H](C)CO)C[C@@H](C)[C@@H](CN(C)S(=O)(=O)c2ccccc2)O3)cc1`, the cytotoxicity call (HSkMC) was “inactive”, the cytotoxicity call (HepG2) was “inactive” and the growth inhibition call (S. aureus RN4220) was “inactive”.

For `C[C@H](CO)N1C[C@H](C)[C@H](CN(C)C(=O)Nc2ccc(C(F)(F)F)cc2)Oc2ccc(NS(=O)(=O)c3ccc(F)cc3)cc2C1=O`, the cytotoxicity call (HSkMC) was “inactive”, the cytotoxicity call (HepG2) was “inactive” and the growth inhibition call (S. aureus RN4220) was “inactive”.

For `C[C@@H]1CCCCO[C@H](CN(C)C(=O)C2CCCCC2)[C@@H](C)CN([C@@H](C)CO)C(=O)c2cc(NC(=O)Nc3ccc(C(F)(F)F)cc3)ccc2O1`, the cytotoxicity call (HSkMC) was “inactive”, the cytotoxicity call (HepG2) was “inactive” and the growth inhibition call (S. aureus RN4220) was “inactive”.

In the case of `NCc1ccc(-n2cccc2)cc1`, the cytotoxicity call (HSkMC) is reported as “inactive”, the cytotoxicity call (HepG2) is reported as “inactive” and the growth inhibition call (S. aureus RN4220) is reported as “inactive”.
